The campaign covered roughly 310,000 compounds. About 14,000 (4.5%) showed an effect of 50% or more. The effect is printed as a negative number. The list shows a part of the results.
Molecular target: human ether-à-go-go-related gene (hERG) potassium channel (human, UniProt Q12809)
Experiment: primary screen, population patch clamp on CHO cells stably expressing hERG
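Further: peak tail current of the secondary pulse compared with the same well before compound.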

Sequence of human ether-à-go-go-related gene (hERG) potassium channel (Q12809 whole entry, looked up): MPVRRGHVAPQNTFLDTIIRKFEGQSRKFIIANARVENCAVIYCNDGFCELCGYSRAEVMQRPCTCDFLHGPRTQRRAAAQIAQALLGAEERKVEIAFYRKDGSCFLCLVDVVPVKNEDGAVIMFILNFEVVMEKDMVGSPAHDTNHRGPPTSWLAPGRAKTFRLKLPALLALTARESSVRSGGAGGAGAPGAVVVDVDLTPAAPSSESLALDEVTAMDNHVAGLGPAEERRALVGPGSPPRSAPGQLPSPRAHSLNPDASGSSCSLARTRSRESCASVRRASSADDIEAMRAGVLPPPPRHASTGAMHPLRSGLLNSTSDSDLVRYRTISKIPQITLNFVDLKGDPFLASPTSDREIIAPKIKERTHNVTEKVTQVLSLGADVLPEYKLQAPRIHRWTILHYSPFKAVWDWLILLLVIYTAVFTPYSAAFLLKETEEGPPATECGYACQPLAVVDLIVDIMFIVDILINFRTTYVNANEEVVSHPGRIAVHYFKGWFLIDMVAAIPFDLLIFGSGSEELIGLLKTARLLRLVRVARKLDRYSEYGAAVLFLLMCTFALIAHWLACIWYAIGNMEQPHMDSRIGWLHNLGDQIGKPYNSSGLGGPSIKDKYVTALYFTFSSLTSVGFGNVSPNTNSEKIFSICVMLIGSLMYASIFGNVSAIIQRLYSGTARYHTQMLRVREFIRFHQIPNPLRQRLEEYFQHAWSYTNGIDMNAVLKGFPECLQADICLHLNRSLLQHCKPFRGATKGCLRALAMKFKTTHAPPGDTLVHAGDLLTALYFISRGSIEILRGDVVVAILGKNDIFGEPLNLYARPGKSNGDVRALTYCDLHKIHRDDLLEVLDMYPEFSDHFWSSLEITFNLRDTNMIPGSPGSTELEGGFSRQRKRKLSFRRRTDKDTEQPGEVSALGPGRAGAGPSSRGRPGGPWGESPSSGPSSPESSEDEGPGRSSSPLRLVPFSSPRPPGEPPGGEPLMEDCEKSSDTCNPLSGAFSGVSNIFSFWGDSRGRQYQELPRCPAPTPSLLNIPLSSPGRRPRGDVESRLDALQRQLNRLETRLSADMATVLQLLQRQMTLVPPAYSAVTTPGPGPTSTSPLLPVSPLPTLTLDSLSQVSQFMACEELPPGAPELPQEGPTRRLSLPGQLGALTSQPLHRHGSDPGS

Structure (SMILES) | hERG current change (%, negative = inhibition) at 10uM [%]
Nc1cc(N)cc(-c2nc3ccccc3o2)c1 | 5.89
Cc1cc(/C=C(\C#N)C(=O)N2CCCCC2)cc(C)c1O | -9.07
O=C1CC(=O)C(n2cncn2)C(c2ccc(Cl)cc2Cl)C1 (centres unmarked) | 7.83
O=C(Cn1c(=O)c2c3c(sc2n(Cc2ccccc2)c1=O)CCCC3)NCCO | 10.9
CC(=O)Nc1ccc(NC(=O)CSc2nnc(-c3cccs3)n2N)cc1 | 1.15
CC1=C(C(=O)OC2CCC(C)CC2)C(c2ccc(O)c([N+](=O)[O-])c2)NC(=O)N1 (centres unmarked) | -0.635
Cc1cc(OCC(=O)NCc2ccccn2)c2c(C)c(Cc3ccccc3)c(=O)oc2c1 | -11.2
COCCCNC(=S)N/N=C/c1ccc2ccccc2c1 | 19.1
CCOc1ccc(C(=O)NCC(=O)OCC(=O)Nc2ccccc2OCC)cc1 | 0.502
O=C(CSc1nnc(-c2cnccn2)n1Cc1ccco1)c1ccccc1 | -16.3
COc1ccc(-c2nc(N)ncc2-c2csc(C)n2)c(O)c1 | 7.75
CCOc1ccc(CNC(=O)C(C)n2ccc3cc(S(=O)(=O)N4CCCC4)ccc32)cc1 (centres unmarked) | -4.02
c1ccc2oc(-c3ccc4nc[nH]c4c3)nc2c1 | 8.28
CC(C)(C)C(=O)Nc1ccc(C(=O)NNC(=O)Cc2ccccc2)cc1 | 12.4
Cc1c2c(nc3c(C(=O)NC4CCCCC4C)cnn13)CCCC2 (centres unmarked) | -10.7
CCc1ccc(NC(=O)C(=O)NCC2CCCN2S(=O)(=O)c2ccccc2)cc1 (centres unmarked) | -26.3
Cn1c2ccccc2c2nnc(SCC(N)=O)nc21 | -7.5
CC(=O)C1=C(C)NC(=O)NC1c1ccc2c(c1)OCO2 (centres unmarked) | 12.9
CC1=NNC(=O)/C1=C\c1cn(-c2ccccc2)nc1-c1ccccc1 | 23.1
COc1ccc2[nH]c(=O)c(C(c3nnnn3C3CCCC3)N(C)C3CCCCC3)cc2c1 (centres unmarked) | -17.3
CCn1c(O)c(C(=O)CC2NCCc3ccccc32)c(=O)n(CC)c1=S (centres unmarked) | 4.97
O=C(/C=C/c1ccco1)Oc1cc(Br)cc(/C=N/NC(=O)c2ccccc2O)c1 | -0.563
Cc1ccc(C)c(OCCC(=O)OCC(=O)NC2CC2)c1 | 5.28

Structure (SMILES) | hERG current change (%, negative = inhibition) at 10uM [%]
CCOC(=O)C1(CCc2ccccc2)CCN(Cc2ccc(NC(C)=O)cc2)CC1 | -76.6
Cc1ccc2c(c1)NCCO2 | 4.46
CCOC(=O)c1ccc(C(=O)OCC)nc1 | 21.1
CC(=O)c1cccc(-n2nnnc2SCC(=O)Nc2ccccc2N2CCCCC2)c1 | 7.52
Oc1c(Br)cc(/C=N/Nc2ccc(Cl)nn2)cc1Br | -37.6
CCOc1ccc2oc(-c3ccccc3)c(C(=O)N(C)C)c2c1 | 10.7
CC12CN3CC(C)(CN(C1)C31CCOCC1)C2=O | 11.4
COc1cc(NC(=O)c2c(F)c(F)c(OC)c(F)c2F)ccc1NC(=O)c1cccs1 | 11.2
COc1cccc(C(=O)N/N=c2\oc3c(OC)cccc3cc2C(=O)NCc2ccccc2)c1 | -8.28
COc1ccc(/C=C2\SC(=S)N(CCC(=O)Nc3ccccn3)C2=O)cc1OC | 26.2
COc1ccccc1N1CCN(CCC(=O)Nc2ccc3c(c2)OCO3)CC1 | -26.7
Cc1nc(N2CCN(c3ccccc3)CC2)[nH]c(=O)c1Cc1ccccc1 | -6.78
Cc1ccc(C(=O)CCNc2ccccc2)o1 | -1.25
O=C1CCCN1CCC(=O)N1CCCC(Nc2ccc(F)cc2)C1 (centres unmarked) | -11.4
O=c1[nH]c2cc(Cl)cc(Cl)c2[nH]c1=O | 9.1
Cc1ccc(/C(O)=C2\C(=O)C(=O)N(C)C2c2ccc(Br)cc2)cc1 (centres unmarked) | 13.3
CCN(CC)c1ccc2c(c1)OC(N)=C(C#N)C2c1cccnc1 (centres unmarked) | -10.1
CC(=O)N1CCN(Cc2nc3cc(NC(=O)c4cccc(Br)c4)ccc3n2C)CC1 | -70
COc1ccc(CN2CCN(S(=O)(=O)c3ccccc3)CC2)cc1Br.O=C(O)C(=O)O | -13.2
O=C1OCc2cc(NC(=O)C3COc4ccccc4O3)ccc21 (centres unmarked) | -6.15
COc1ccccc1C(=O)NNC(=O)c1ccccc1[N+](=O)[O-] | 5.7
COc1ccc(C2NC(=O)CCC2[N+](=O)[O-])cc1OC (centres unmarked) | 10.1
CC12CCC(C(=O)Nc3ccccc3)(C(Br)C1=O)C2(C)C (centres unmarked) | -13.8

Structure (SMILES) | hERG current change (%, negative = inhibition) at 10uM [%]
COc1ccccc1NC(=O)COc1ccc(C(=O)NCc2ccccc2)cc1OC | 15.8
CCNC(=O)CC1C(=O)N(c2ccccc2)C(=O)N1CCC(C)C (centres unmarked) | 5.26
CC1(C)Cc2ccccc2C(/C(C#N)=N/O)=N1 | 5.63
S=c1nn[nH]n1C12CC3CC(CC(C3)C1)C2 | 15.5
CC1(C)CC(NC(=O)C(=O)NCCc2ccc(Cl)cc2)CC(C)(C)N1 | -13.9
Cc1cc(C)cc(OCCn2ccnc2)c1 | 12.1
COc1cc(/C=C2\C(=N)N3N=C(S(C)(=O)=O)SC3=NC2=O)cc(OC)c1OCCOc1cccc(C)c1 | 18.7
CC(C)=C1SC(N2CCN(c3ccc(Cl)cc3)CC2)=NC1=O | -10.7
C/C(N)=C(/C#N)C(=O)CSc1nc2ccccc2n1CC(C)C | 9.78
COc1ccc(C(=O)Nc2nnc(SCC(=O)NC3CCCC3)s2)c(OC)c1 | 13.3
CCOc1nc(Nc2ccc(OC)cc2)nc(N2CCOCC2)n1 | -4.52
Cc1ccc(S(=O)(=O)N2CCC(C(=O)NNC(=O)C3CC3)CC2)cc1Cl | 10.9
CS(=O)(=O)N1CCN(c2nc(-c3ccc(F)cc3)cs2)CC1 | -77.2
Cl.Oc1ccc(C2=CSC3=NCCN23)cc1O | -1.2
Oc1ccccc1CNc1cnc2ccccc2c1 | 0.673
COc1ccc(C(=O)C2CCCN(Cc3cn[nH]c3-c3ccccc3)C2)cc1OC (centres unmarked) | -74
CC(C)COP(=O)(OCC(C)C)C(Nc1ccccc1)c1ccc(F)cc1 (centres unmarked) | 4.06
O=C(CSc1nnc(SCc2ccccc2Cl)s1)N/N=C/c1ccc(C(=O)O)cc1 | 2.71
CCOC(=O)N1CCC(NC(=O)C2CCN(c3nc(-c4ccc(OC)cc4)no3)CC2)CC1 | 6.58
CCOC(=O)C1(CCc2ccccc2)CCN(Cc2ccc(C(=O)OC)cc2)CC1 | -91.8
COc1cccc(CNC(=S)NC2CCCC2)c1 | 3.42
Cl.O=C(NCCN1CCCC1)c1ccc(Br)cc1 | -11.9
CC1=CC(c2ccc(Cl)cc2)n2nc(NC(=O)CCCC(=O)O)nc2N1 (centres unmarked) | 21

Structure (SMILES) | hERG current change (%, negative = inhibition) at 10uM [%]
O=C(O)CCCC(=O)Nc1ccc(C(=O)NCc2cccnc2)cc1 | 9.35
Cc1ccc(N2C(=O)c3cccc4c(C(=O)O)ccc(c34)C2=O)cc1 | 8.57
Cc1cc(C)cc(OCC(=O)OCC(=O)c2cc(C)n(C3CC3)c2C)c1 | -4.06
Nc1ccc(C(=O)Nc2ccccc2C(=O)O)cc1 | 10.2
Cc1cccc(NC2=NC(C)(C)N=C(N)N2)c1 | 9.04
CCOc1ccccc1NC(=O)c1cccc(NC(=O)c2ccco2)c1 | -38.6
CCCCC(=O)NC1(C(F)(F)F)C(=O)Nc2c1c(=O)[nH]c(=O)n2Cc1ccco1 (centres unmarked) | -1.02
N/C(=N\OC(=O)N1CCOCC1)c1ccc(Br)cc1 | 17.6
CCCCc1cc(=O)oc2cc(C)cc(OCC(=O)NC(Cc3ccc(Cl)cc3)C(=O)O)c12 (centres unmarked) | 12.3
CCn1nc(CC(=O)Nc2ccc(-n3cnnn3)c(C)c2)c2ccccc2c1=O | -13
CC(C)OC(=O)CSc1nc(N)c(C#N)cc1C#N | 1.38
COc1ccc(C2=NN(C(=O)CN3CCCC3)C(c3ccc(OC)cc3)C2)cc1 (centres unmarked) | -40.7
Cc1nc2ncnn2c(C)c1CCC(=O)Nc1ccc(S(=O)(=O)N2CCCCCC2)cc1 | -1.25
COCCCNC(=O)CCc1ccccc1 | 28.1
Cc1ccc(N=C2NC(=O)C(CC(=O)NCc3ccccc3)S2)cc1C (centres unmarked) | -11.7
CCN(Cc1ccccc1)S(=O)(=O)c1ccc(C(=O)N(CCCN(C)C)c2nc3ccc(F)cc3s2)cc1.Cl | -12.6
Cc1ccc(C(C(=O)NC(C)(C)C)N(C(=O)c2csnn2)c2ccccc2F)o1 (centres unmarked) | -9.84
Cc1nnc(NC(=O)C(C)Oc2ccc3c(C)cc(=O)oc3c2)s1 (centres unmarked) | 13.2
Cc1cccc(NC(=S)N(CCCN(C)C)Cc2cc3cc4c(cc3[nH]c2=O)OCO4)c1 | -52.7
C=CCn1c(O)c(N=NC(=O)CNC(=O)Cc2ccccc2)c2ccccc21 | -7.12

— paper PMC4336329 (PLoS ONE, 2015)
